The values below come from patent publication US20250018037A1 (SEOUL NATIONAL UNIVERSITY R AND DB FOUNDATION, published 2025).

The test has as its target T1, CD40-hFc protein (Acro Biosystems, #CD0-H5253) (UniProt P25942 in part).
T1 construct: Bought protein
Nature of the test: SPR (Biacore 8K): CD40-hFc captured on immobilized anti-human Fc IgG, scFv injected in 2-fold dilutions (6 curves). An excerpt: Since the murine anti-His antibody had decreased binding affinity against 6×His peptide after humanization, affinity maturation was further performed to increase it and chicken anti-CD40 antibody (2B1) was only humanized. Serial dilution antibodies at 6 concentrations were used to characterize the kinetics of antibody-antigen binding by SPR. […] So, there was not affinity loss against their antigen after humanization (FIG. 22B).
A Biacore 8K SPR system (Cytiva) equipped with CM5 sensor chip (Cytiva) was used to generate binding kinetic rate and affinity constants. To prepare the capture surfaces for anti-His antibodies, streptavidin was immobilized, followed by biotin conjugated 6×His peptide was captured. The antibodies were 2-fold serial diluted with 1×PBS, then injected at a flow rate of 30 μL/min for 3 minutes, allowing 10 minutes dissociation phase. The surface was regenerated using 10 mM glycine, pH 1.5. The kinetics were analyzed using Biacore 8K evaluation software, version 1.0 (Cytiva). In case of anti-CD40 antibodies, anti-human Fc IgG (Jackson ImmunoResearch) was immobilized, and then CD40-hFc protein (Acro Biosystems, #CD0-H5253) was captured. The antibodies were 2-fold serial diluted with HBS-EP+ buffer (10 mm HEPES, 150 mm sodium chloride, 3 mm EDTA, 0.05% Polysorbate 20), then injected at a flow rate of 30 μL/min for 4 minutes, allowing >15 minutes dissociation phase.
For orientation: SPR reads the build-up and loss of mass on a sensor chip optically.

T1 sequence (P25942 21-193 limits assumed): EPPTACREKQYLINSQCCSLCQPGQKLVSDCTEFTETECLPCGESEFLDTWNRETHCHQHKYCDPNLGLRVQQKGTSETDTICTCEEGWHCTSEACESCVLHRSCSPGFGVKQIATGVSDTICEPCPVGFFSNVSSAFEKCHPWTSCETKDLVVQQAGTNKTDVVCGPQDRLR

B1: Humanized anti-CD40 scFv (2B1 clone) (scFv)
scFv: AIQLTQSPSSLSASVGDRVTITCSGGDSYAGSYYYGWYQQKPGKAPKTLIYYNDKRPSGVPSRFSGSTSGTDSTLTISSLQPEDFATYYCGSIDTSSGTGIFGQGTKLEIKGQSSRSSGGGGSSGGGGSEVQLLESGGGLVQPGGSLRLSCAASGFTFSSYQMFWVRQAPGKGLEYVSEISGSGLSTWYAP[about 20 residues not listed]MNSLRAEDTAVYYCAKAAGSCGVGTCAGGIVDAIDAWGQGTTVTVSS
notes: also called hu2B1; humanized anti-hCD40
By Kd is commonly meant the constant that tells how readily two partners part at equilibrium. Low values mean tighter binding, high ones weaker binding. In general, koff refers to the rate constant with which the complex falls apart. Low readings indicate slow dissociation, high ones fast dissociation. One may read the kon as the rate constant with which the complex forms. Higher therefore signals faster complex formation. As for B1, binding was put at a Kd of 0.061 nM, the koff was determined as 1.13e-05 s⁻¹ and the kon was 185000 M⁻¹ s⁻¹.
